For 6 substances, binding results are on record in paper PMC3758296.

Protein sequences, listed by entry. Tags and fused reporters are not part of them. Lines headed by an entry give the natural chain unless they say otherwise; changes in a name come on top. Chains listed by the source or under a name are the forms on record and can include a tag or linker.
UniProt P00441: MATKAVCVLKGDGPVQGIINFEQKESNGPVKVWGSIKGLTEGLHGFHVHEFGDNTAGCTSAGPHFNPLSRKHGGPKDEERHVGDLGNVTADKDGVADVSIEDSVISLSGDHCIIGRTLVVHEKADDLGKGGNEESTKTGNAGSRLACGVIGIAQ
GFP-tagged SOD1 G93A (P00441, form named): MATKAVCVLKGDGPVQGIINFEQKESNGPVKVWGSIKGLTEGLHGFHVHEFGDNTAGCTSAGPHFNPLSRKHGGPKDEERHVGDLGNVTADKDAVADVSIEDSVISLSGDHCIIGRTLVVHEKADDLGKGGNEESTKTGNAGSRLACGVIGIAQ
myc-tagged HSJ1a, wild type (P25686-2, form named): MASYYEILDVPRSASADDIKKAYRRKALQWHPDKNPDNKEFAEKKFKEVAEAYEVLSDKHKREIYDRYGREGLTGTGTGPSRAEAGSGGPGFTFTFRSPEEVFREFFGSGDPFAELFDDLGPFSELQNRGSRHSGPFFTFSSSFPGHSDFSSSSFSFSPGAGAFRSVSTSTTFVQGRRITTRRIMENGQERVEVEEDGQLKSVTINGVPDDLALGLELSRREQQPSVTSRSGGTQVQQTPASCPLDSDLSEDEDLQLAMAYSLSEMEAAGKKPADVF
myc-tagged HSJ1a J domain mutant H31Q (P25686-2, form named): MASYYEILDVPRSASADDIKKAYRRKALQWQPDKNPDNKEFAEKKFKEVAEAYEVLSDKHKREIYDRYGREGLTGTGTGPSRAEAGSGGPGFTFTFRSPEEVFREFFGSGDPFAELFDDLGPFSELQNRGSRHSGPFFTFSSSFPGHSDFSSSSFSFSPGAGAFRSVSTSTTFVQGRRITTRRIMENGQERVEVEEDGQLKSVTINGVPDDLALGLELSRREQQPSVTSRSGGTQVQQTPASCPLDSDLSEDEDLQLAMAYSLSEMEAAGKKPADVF
myc-tagged HSJ1a UIM mutant (S219A/E222A/S262A/E265A) (P25686-2, form named): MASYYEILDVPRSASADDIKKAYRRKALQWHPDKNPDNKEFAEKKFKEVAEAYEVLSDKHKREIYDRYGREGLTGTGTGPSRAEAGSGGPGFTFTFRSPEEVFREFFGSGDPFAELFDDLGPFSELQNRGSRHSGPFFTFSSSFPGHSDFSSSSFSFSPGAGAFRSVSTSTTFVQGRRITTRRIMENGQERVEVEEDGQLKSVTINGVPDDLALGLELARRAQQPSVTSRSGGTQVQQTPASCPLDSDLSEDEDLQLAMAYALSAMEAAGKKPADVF
UniProt Q9QYI5: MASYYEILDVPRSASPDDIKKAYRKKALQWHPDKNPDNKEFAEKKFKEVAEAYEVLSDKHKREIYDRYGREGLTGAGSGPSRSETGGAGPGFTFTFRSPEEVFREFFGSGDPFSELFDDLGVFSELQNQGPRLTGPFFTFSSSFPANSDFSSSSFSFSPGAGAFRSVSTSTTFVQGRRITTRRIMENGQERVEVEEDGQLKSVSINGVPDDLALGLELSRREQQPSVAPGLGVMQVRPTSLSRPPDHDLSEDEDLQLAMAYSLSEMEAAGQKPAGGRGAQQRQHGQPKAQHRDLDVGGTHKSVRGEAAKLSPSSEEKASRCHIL

These are yes or no findings as the source states them, for the method shown. Binding seen in cells or lysates may run through a third protein. Some entries that bind do so weakly or less than the wild type.

Assay [1] has as its target human SOD1 G93A mutant protein, transgene product (human) (UniProt P00441). Nature of the assay: co-IP; spinal cord lysates (PBS, protease inhibitors, sonicated) of WT, hHSJ1a, G93A and DBLE male mice at 120 days; reciprocal precipitation with anti-SOD1 (C4F6) or anti-HSJ1 (S653) on protein-G Dynabeads, control IgG; Western blot for HSJ1 and SOD1.
Assay [2] concerns the target human HSJ1a (DNAJB2a), transgene product (human) (UniProt P25686). The description is as above.
Assay [3] addresses GFP-tagged SOD1 G93A (human) (UniProt P00441). Nature of the assay: co-IP; RIPA lysates of SK-N-SH cells co-transfected with GFP-SOD1 (WT or G93A) and myc-HSJ1a (wild type, H31Q or ΔUIM); reciprocal precipitation with anti-GFP or anti-myc (9E10) on protein-G Dynabeads, control IgG; Western blot with SOD-100 or S653. On the technique in general: Immunoblotting shows a protein as a band on a membrane.

The target of assay [4] is GFP-tagged wild-type SOD1 (human) (UniProt P00441). The description is as above.

Take “endogenous mouse HSJ1b (from UniProt Q9QYI5 1-324)”: in assay [1], the binding result is listed as “no binding”. As for “human HSJ1a (DNAJB2a), transgene product (from UniProt P25686-2 1-277)”, in assay [1], the binding result was “binds”.

Consider “human SOD1 G93A mutant protein, transgene product (from UniProt P00441 1-154)”, for which the binding entry in assay [2] is reported as “binds”. As for “myc-tagged HSJ1a J domain mutant H31Q (from UniProt P25686-2 1-277)”, in assay [3], the binding entry is given as “binds”. On the same count and under the same terms, for “myc-tagged HSJ1a UIM mutant (S219A/E222A/S262A/E265A) (from UniProt P25686-2 1-277)” the value was “binds”. Take “myc-tagged HSJ1a, wild type (from UniProt P25686-2 1-277)”: the binding entry in assay [4] is on record as “binds weakly”; in assay [3] it was “binds”.
